Data: PubChem BioAssay AID686979 (National Center for Advancing Translational Sciences (NCATS), 2013)
In all, about 420,000 compounds went through this assay and about 50,000 (12%) were called active. The inconclusive results got no clear call from the source; some entries with a clear call stand among them for comparison. The call rests on the fitted dose curve; in most records, active means well fitted inhibition curve with a large enough effect; inconclusive means small, poorly fitted or top-dose-only effect; inactive means flat fitted curve, though single readings scatter. Potencies of inconclusive entries are left out as doubtful fits.

Assay: qHTS for Inhibitors of human tyrosyl-DNA phosphodiesterase 1 (TDP1): qHTS in cells in presence of CPT; further: nearly all actives have a fitted effect of over 55% in size
Conditions: chicken DT40 Tdp1-/-;hTDP1 cells + 20 nM CPT, ATP luminescence, 48 h; activity change, negative = growth inhibition: at 46.2 µM (top of the series) unless noted
In short: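 Chicken DT40 Tdp1-/- cells stably complemented with human TDP1 were seeded at 400 cells/well in medium containing 20 nM camptothecin, exposed to pin-transferred compounds, and grown at 37 °C for at least 48 hr. Viability was read as ATP luminescence.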
On the % scale 0 is the no-effect control and ±100 the full control effect; potency means the concentration at half of the fitted maximal effect; tags describe the fitted curve by direction and shape.

SMILES | activity change, negative = growth inhibition | Potency
O=C(c1ccc(Oc2cc(Cl)cc(Cl)c2)o1)N1CCCCC1 | inactive: -14.3% | 
CCOC(=O)c1ccc(NC(=O)N2CCN(c3ccccn3)CC2)cc1 | inactive: 0.182% | 
O=S(=O)(Nc1ccc(N2CCCCC2)cc1)c1ccc(F)cc1 |  | active: 16.4 µM
CCOC(=O)c1c(C)n(S(=O)(=O)c2ccc(C)cc2)c2ccc(NS(=O)(=O)c3ccc(C)cc3)cc12 |  | active: 18.4 µM
O=C(NCc1ccccc1F)c1ccncc1 | inactive: 19.4% | 
CC(NC(=O)c1cc(-c2ccc(Cl)cc2)on1)c1ccccc1 (centres undefined) |  | inconclusive [inhibitor, full curve]
Cc1ccc(S(=O)(=O)NN=CC=CC=NNS(=O)(=O)c2ccc(C)cc2)cc1 |  | inconclusive [inhibitor, single point]
COc1ccccc1NC(=O)N1CCCC(CNC(=O)c2ccccc2Cl)C1 (centres undefined) | inactive: -2.41% | 
O=C(N/N=C/c1cccs1)[C@H]1C[C@@H]1c1ccccc1 |  | inconclusive [inhibitor, partial curve]
C/C(=N\NC(=O)C(=O)Nc1cccc(C(F)(F)F)c1)c1ccc(Cl)s1 |  | inconclusive [inhibitor, full curve]
COc1ccc(CNC(=O)c2ccc3c(c2)N(Cc2ccccc2)CCS3)cc1 |  | inconclusive [inhibitor, single point]
Clc1ccc(CN2C3=NCCN3c3ccccc32)cc1Cl |  | inconclusive [inhibitor, single point]
CCOc1ccc(OCC)c(NC(=O)CN(C)S(=O)(=O)c2ccc3nc(C)sc3c2)c1 |  | inconclusive [inhibitor, single point]
O=C1CCc2cc(S(=O)(=O)N3CCC(C(=O)Nc4nccs4)CC3)ccc2N1 |  | inconclusive [inhibitor, single point]
COc1ccc(-n2c(Cc3cccn3C)nnc2SCC(=O)Nc2ccc(C)c(Cl)c2)cc1 |  | inconclusive [inhibitor, single point]
Cc1[nH]c2ccccc2c1C(=O)CN1CCC(C)CC1 | inactive: -1.27% | 
O=C(O)CCCCCCCCc1cn(CCc2c[nH]c3ccccc23)nn1 |  | inactive
CN(C)CCCN(C(=O)c1ccc(Br)s1)c1nc2cc3c(cc2s1)OCCO3 |  | active: 29.1 µM
CCOC(=O)c1nnn(CC(=O)NC(=O)Nc2ccc(F)cc2)c1C(=O)OCC |  | inactive
Cc1cccc(C(P(=O)(c2ccccc2)c2ccccc2)P(=O)(c2ccccc2)c2ccccc2)n1 |  | inconclusive [inhibitor, partial curve]
CC(C)(C)OC(=O)N(CCc1ccccc1)Cc1ccccc1OCc1ccc(NC(=O)C2CCC2)cc1 |  | inconclusive [inhibitor, single point]
C#CCNC(=O)C[C@@H]1C[C@@]2(C(=O)OCC)CCC=C2N(CCC2=CCCCC2)C1=O |  | inconclusive [inhibitor, single point]
Cc1ccc(C)c(NCC(=O)NNC(=S)Nc2ccccc2)c1 | inactive: 12.3% | 

SMILES | activity change, negative = growth inhibition | Potency
CC1=C(C(=O)NCc2ccc3c(c2)OCO3)C2(CCC(C)CC2)OC1=O (centres undefined) |  | inconclusive [inhibitor, single point]
COCCc1nn2c(=O)cc(COC(=O)c3cc(OC)c(OC)c(OC)c3)nc2s1 | inactive: -7.66% | 
Cc1cc(C(=O)NC2CCC(C)CC2)c(C)o1 (centres undefined) |  | inconclusive [inhibitor, single point]
O=C(/C=C/c1ccc(S(=O)(=O)N2CCOCC2)cc1)NC(CO)C(O)c1ccc([N+](=O)[O-])cc1 (centres undefined) | inactive: -1.66% | 
C=C(C)CN=C1NN=C(c2cc(C)n(-c3ccc(C)cc3)c2C)CS1 |  | active: 14.6 µM
O=C(c1ccc(Cl)c(Cl)c1)N1CCC(=O)N(C(COCc2cccc(C(F)(F)F)c2)Cc2ccccc2)CC1 (centres undefined) |  | inconclusive [inhibitor, single point]
CCCS/C(N)=N/N=C/c1cc(C)ccc1O |  | active: 0.731 µM
C=CCn1c(-c2oc3nc(-c4ccccc4)cc(-c4ccccc4)c3c2N)n[nH]c1=S |  | inconclusive [inhibitor, single point]
COc1cc(OC)c(OC)cc1/C=C1\Oc2cc(OCC(=O)N3Cc4ccccc4C[C@H]3C(=O)O)ccc2C1=O | inactive: 0.84% | 
CSCC[C@H](NC(=O)OC(C)(C)C)C(=O)N/N=C/c1ccc2nccnc2c1 |  | inconclusive [inhibitor, partial curve]
CN(Cc1ccccc1NS(=O)(=O)c1ccc(Cl)cc1)C1CCCCC1 |  | inconclusive [inhibitor, single point]
COC(=O)c1[nH]c2ccc(Cl)cc2c1NC(=O)CN1CCc2cc(OC)c(OC)cc2C1 |  | inconclusive [inhibitor, single point]
O=C(CSc1nc2cc(Cl)ccc2o1)Nc1ccc(N2CCOCC2)cc1 | inconclusive: -30.7% [inhibitor] | 
Cc1cccc(C)c1NC(=O)C(C1CC1)n1c(-c2ccc(C(F)(F)F)cc2)nc2ccccc21 (centres undefined) |  | inconclusive [inhibitor, single point]
CC(C)Oc1ccc(C(=O)Nc2nc3c(s2)CC(C(C)(C)C)CC3)cc1 (centres undefined) |  | active: 16.4 µM
COc1ccc(N2CCN(C(=O)CCc3nc(-c4ccc(C)cc4)no3)CC2)cc1 |  | inconclusive [inhibitor, partial curve]
COc1cc(S(=O)(=O)n2cnc(C)c2)ccc1Br | inactive: -17.5% | 
CCC(=O)OCC(=O)[C@@]1(OC(=O)CC)[C@@H](C)C[C@H]2[C@@H]3CCC4=CC(=O)C=C[C@]4(C)[C@@]3(Cl)[C@@H](O)C[C@@]21C |  | active: 23.7 µM
CCCOc1ccc(C(C)=O)cc1CSCCC#N |  | inconclusive [inhibitor, single point]
CCOc1cc(CN2CCSCC2)ccc1O | inactive: -11.4% | 
CN1CCN(C(=O)C2=C[C@@H](c3csc4ccccc34)C[C@@H](OCc3ccc(CO)cc3)O2)CC1 |  | active: 20.6 µM
Cc1nc2nc(C(F)(F)F)[nH]n2c(=O)c1Cc1ccccc1 | inactive: -4.62% | 
Cc1cc(C)cc(C(=O)NC(CC(N)=O)c2ccc(N3CCC(Br)CC3)c([N+](=O)[O-])c2)c1 (centres undefined) |  | inconclusive [inhibitor, single point]

SMILES | activity change, negative = growth inhibition | Potency
COc1ccc(-n2cc(CN[C@H]3CCCCNC3=O)c(-c3cccc(F)c3)n2)cc1 |  | active: 5.8 µM
O=C(Nc1ccc(S(=O)(=O)N2CCOCC2)cc1)c1ccc(Cl)cc1Cl |  | inconclusive [inhibitor, partial curve]
CN(C)Cc1csc(NC(=O)Nc2ccccc2C(C)(C)C)n1 |  | inconclusive [inhibitor, single point]
CC(C)CCC[C@@H](C)[C@H]1CC(=O)C2=C3CC[C@H]4C[C@@H](O)CC[C@]4(C)[C@H]3CC[C@@]21C |  | inconclusive [inhibitor, single point]
Cc1ccc(C(C)C)c(OCC(=O)NNCC(=O)Nc2cccc(F)c2)c1 |  | active: 14.6 µM
CCOC(=O)[C@]12CCCC=C1N(CCc1ccc(OC)c(OC)c1)C(=O)[C@H](CC(=O)NCCCCc1ccccc1)C2 |  | inconclusive [inhibitor, single point]
O=S(=O)(c1ccc(F)cc1)N1CCCC(c2nc(-c3ccc(F)cc3)no2)C1 (centres undefined) |  | inconclusive [inhibitor, partial curve]
O=C(COc1ccc(S(=O)(=O)N2CCOCC2)cc1)N1CCCCCC1 | inactive: 0.455% | 
O=C(/C=C/c1ccccc1)N1CCN(Cc2cc(=O)n3nc(-c4ccccc4Cl)sc3n2)CC1 |  | inconclusive [inhibitor, single point]
O=C(NCCN1CCOCC1)NC1(C(F)(F)F)Oc2ccccc2O1 |  | inconclusive [inhibitor, single point]
O=c1c2ccccc2nc2n1CCc1c-2[nH]c2ccccc12 | inconclusive: -30% [inhibitor] | 
Cc1ccc(Cn2c(C)c3cnn(CC(=O)N4CCN(c5ccc(F)cc5)CC4)c(=O)c3c2C)cc1 |  | active: 10.3 µM
CCOc1ccc2nc(NCCNC(=S)NCCCN(C)C)c(C#N)cc2c1 |  | inconclusive [inhibitor, single point]
COc1ccc(Cl)cc1NS(=O)(=O)c1c(C)[nH]c(=O)[nH]c1=O |  | inactive
Cc1ccc(O)c(NC(=O)CCSc2nc(-c3ccco3)cc(C(F)(F)F)n2)c1 |  | inconclusive [inhibitor, single point]
O=C(CN1C(=O)C2(SCC(=O)N2c2ccc(Cl)cc2)c2ccccc21)NCCc1ccccc1 (centres undefined) |  | inconclusive [inhibitor, single point]
C#C[C@]1(OC(C)=O)CC[C@H]2[C@@H]3CCC4=C/C(=N/O)CC[C@@H]4[C@H]3CC[C@@]21CC |  | inconclusive [inhibitor, single point]
COc1ccc(CCNC(=O)C2CCCN2C(=O)Nc2ccc(Cl)cc2)cc1OC (centres undefined) | inactive: -4.57% | 
O=C(C1CCCC1)N1CCC(CC2CC(c3ccc(Cl)cc3)=NO2)(C(=O)NCC2CCCCC2)CC1 (centres undefined) | inactive: -23.5% | 
CN(C)C(=O)c1cccc(-c2cnc3sc(NCc4ccc5c(c4)OCO5)nn23)c1 |  | active: 16.4 µM
O=C(NCc1ccc(F)cc1)c1cc(C2CCCN(C(=O)c3ccc4ccccc4c3)C2)on1 (centres undefined) |  | active: 16.4 µM
O=C(/C=C/C=C/c1ccc2c(c1)OCO2)N1CCCCC1 |  | inconclusive [inhibitor, single point]
CCOc1ccc(NC(=O)CN(C)C(=O)C2CSC3(C)CCC(=O)N23)cc1OCC (centres undefined) |  | inconclusive [inhibitor, single point]
